# The full ranking holds about 33,000 sequences; the median of “E-score (-0.5 to 0.5)” is about -0.035, and the highest 2% start at about 0.35. Some of the results follow.
# Target: T1, Pdr3 (UniProt P33200)
# T1 sequence: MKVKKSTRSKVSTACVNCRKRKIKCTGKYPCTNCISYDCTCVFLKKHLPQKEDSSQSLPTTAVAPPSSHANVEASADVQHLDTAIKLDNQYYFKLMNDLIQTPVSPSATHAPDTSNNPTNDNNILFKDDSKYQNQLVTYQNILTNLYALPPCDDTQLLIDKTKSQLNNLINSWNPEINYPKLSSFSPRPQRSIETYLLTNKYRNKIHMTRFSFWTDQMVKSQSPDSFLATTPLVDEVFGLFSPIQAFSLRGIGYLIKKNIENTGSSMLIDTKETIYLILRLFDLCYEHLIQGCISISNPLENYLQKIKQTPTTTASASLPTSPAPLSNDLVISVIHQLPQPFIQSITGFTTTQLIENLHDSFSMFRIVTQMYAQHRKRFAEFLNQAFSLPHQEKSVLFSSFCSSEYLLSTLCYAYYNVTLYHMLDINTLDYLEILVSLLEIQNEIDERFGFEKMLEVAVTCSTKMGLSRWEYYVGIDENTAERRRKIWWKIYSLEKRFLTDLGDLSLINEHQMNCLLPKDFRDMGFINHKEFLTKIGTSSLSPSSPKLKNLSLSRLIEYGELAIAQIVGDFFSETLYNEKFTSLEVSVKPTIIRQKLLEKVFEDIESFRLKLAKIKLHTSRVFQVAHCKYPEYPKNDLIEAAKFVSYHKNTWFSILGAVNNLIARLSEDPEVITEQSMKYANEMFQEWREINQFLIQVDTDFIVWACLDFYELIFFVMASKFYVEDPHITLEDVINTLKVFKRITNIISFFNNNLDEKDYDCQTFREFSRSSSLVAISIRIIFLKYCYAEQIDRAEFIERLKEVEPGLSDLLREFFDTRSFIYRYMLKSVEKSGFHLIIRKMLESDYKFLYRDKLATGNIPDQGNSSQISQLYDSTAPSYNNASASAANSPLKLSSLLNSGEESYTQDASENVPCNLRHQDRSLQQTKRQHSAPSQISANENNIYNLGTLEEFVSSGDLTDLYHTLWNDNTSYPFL
# Assay: PBM E-score (8-mer binding enrichment) (E-score (-0.5 to 0.5)); higher = stronger / more preferred TF binding; most listed sequences are background and not binding sites
# Conditions: protein concentration: 200 nM; construct: GST-full length
# Procedure: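 Universal 'all 10-mer' protein binding microarrays (Agilent AMADID 015681) probed with GST-tagged S. cerevisiae TFs (full-length or DBD) made by in vitro transcription/translation (PURExpress), about 100-200 nM. Bound TF was detected with fluorescent anti-GST. Each ungapped 8-mer (which stands for itself and its reverse complement) is scored by the PBM enrichment score (E-score), a modified Wilcoxon-Mann-Whitney statistic from -0.5 to +0.5, computed with the Universal PBM Analysis Suite. Scale: above 0.35 generally sequence-specific binding.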
row,Sequence,PBM E-score
1,AAATACCC,0.14
2,AAGCTTGT,-0.0147
3,GCCGTCAA,-0.048
4,CGAGCTTA,0.0148
5,CCTGATCC,0.211
6,AGCGACAA,-0.104
7,AAGGTTTG,-0.0185
8,CTTCTGCC,-0.0722
9,GTTTGGCA,-0.0402
10,AATGGTGT,-0.0618
11,ATATTTCC,0.351
12,CCTGTCCC,0.00774
13,TATGCCGA,0.121
14,TGATCGAA,-0.143
15,GTCGGCGA,-0.0361
16,CAGCTCAG,-0.139
17,AGGGCGGA,0.285
18,ACCAAGTG,-0.131
19,AGGGACTC,-0.257
20,CGTGTCCA,-0.00697
21,AGAACCTG,-0.235
22,ATGTCGTA,-0.238
23,GATTAAAC,0.145
24,TAACGATA,0.0093
25,CCCTTCAC,-0.139

row,Sequence,PBM E-score
1,GGTTCGTA,-0.0473
2,GCACCATA,-0.0603
3,CTGCCGTA,-0.124
4,CTTTTGTC,0.098
5,TATCACAA,-0.0953
6,GGTCGAAA,-0.173
7,GACCCTAC,-0.142
8,CGCGGTAA,0.36
9,AGGGCCTC,-0.0973
10,AAGGCTGT,-0.18
11,GGTACTCA,0.0687
12,ATAGCGAT,-0.127
13,TAGAGCAA,-0.24
14,ATTCGAAG,-0.0309
15,AGCTAAAA,-0.084
16,ATGGCATG,0.0068
17,CATTTTAG,0.192
18,CGCTCCAC,-0.0506
19,ACAGCCTC,-0.168
20,TCTTTACA,-0.0498
21,AGGGAGTC,-0.36
22,AAGGTCGT,-0.298
23,AAAGCCTC,-0.0826
24,GGATACCA,0.212
25,GATACCGA,-0.0263

row,Sequence,PBM E-score
1,GAGAGTAC,-0.116
2,CTACGGAA,0.407
3,AACTTGAC,-0.144
4,CCCTGCAC,-0.0187
5,GCATTAGA,-0.0471
6,GCGCCGAC,0.107
7,AGTGGAGC,-0.177
8,ATAAATCA,-0.0127
9,CCGGTGAA,0.259
10,TATGCCAA,-0.0783
11,CGGAGCTA,0.22
12,AGGTGGCA,-0.0746
13,AAGAGATC,-0.301
14,CATCTACG,0.0137
15,AGCCCCAC,0.018
16,AAACTCGC,-0.054
17,CCACTTAA,-0.0361
18,ACAGTTGC,0.015
19,ATTTACCA,-0.00148
20,CCGCTTCC,0.261
21,AGGTGCTC,-0.139
22,CAGTAACG,-0.0621
23,TACCTCGA,-0.0861
24,TCCCATAA,-0.14
25,AACACAGT,-0.0579

row,Sequence,PBM E-score
1,GGGCTGGA,0.0575
2,CGTTCAAG,-0.0511
3,ACAGTGGC,-0.101
4,GCAGAGGA,-0.0872
5,CAGCTAAG,-0.274
6,CTGAAGTA,-0.0655
7,ACAACGTG,-0.0902
8,CGGCAACG,0.2
9,GGCTAGAC,-0.0238
10,CTGCTTAA,-0.0633
11,CCAGTTAG,-0.168
12,CTGCCCAG,-0.232
13,CTGCAAAG,-0.224
14,GGGGAGCA,-0.102
15,AACCGGAG,0.326
16,GCCGCCAC,-0.0473
17,CGGTAATC,0.198
18,CTATCCTA,-0.0548
19,ATGGTTAG,-0.0134
20,CTCCACAC,-0.124
21,GCAAATCC,0.107
22,AGCATCCA,-0.0909
23,ACTCATGG,-0.16
24,AGGGGCTG,-0.109
25,ATTTCTTC,0.101

row,Sequence,PBM E-score
1,GCCTGTTA,-0.0943
2,GGCAACCA,0.146
3,AGATGAAG,-0.141
4,CCACCGCC,-0.0862
5,ATTTGGCA,-0.104
6,GAGACTCA,-0.204
7,CCATTGCA,-0.277
8,CCGTAGCC,-0.0862
9,ACTTACTG,-0.0405
10,CAATTGAC,-0.0969
11,CTCGAACA,-0.0366
12,ACCGACCG,0.129
13,AGTTCTAC,-0.225
14,CAGTTTGA,-0.0285
15,GCCGCTCC,0.143
16,ACACCTGT,-0.0514
17,CGCTGCAA,-0.208
18,AAGGCGCT,-0.114
19,GTCACAAA,-0.0851
20,AATTCTCT,-0.117
21,CCCCGGAG,0.355
22,GTCTGCCA,-0.122
23,ACGAAACA,-0.0431
24,GTCTCCGA,0.3
25,ACTGGCCA,-0.0126

row,Sequence,PBM E-score
1,AAATTAAA,-0.0437
2,AATCTGCC,0.00749
3,GCATCAGA,-0.0362
4,GTACCCTA,-0.269
5,AACGTCTT,-0.294
6,CGCTGACG,-0.0242
7,TATGTGCA,-0.0873
8,TATAAACA,-0.131
9,AGCTACCG,-0.041
10,AGTGTACG,-0.00617
11,ATCCAATA,0.0632
12,TAAGCGGA,0.245
13,CGTTAGCC,0.00403
14,CCCAACCC,0.0808
15,CAGAACTA,-0.0819
16,ACGCCACT,-0.00222
17,GATAATTA,0.16
18,CACTGACG,-0.0968
19,CGCTCAAA,0.00172
20,CCGTTCTC,0.0763
21,AAATAGGA,-0.0294
22,AACTGCTG,-0.0417
23,AGAGGGTA,-0.16
24,CGCAGCCG,0.221
25,AAAATTGA,-0.152

row,Sequence,PBM E-score
1,AGTTTGCC,-0.0284
2,CCCTACCA,-0.148
3,CTACTGTA,-0.136
4,TGGTCTAA,-0.253
5,GACAGGCC,0.0678
6,GCGGCAGA,0.107
7,CGAAAGGC,-0.00797
8,GATTGTGA,0.0389
9,GACAGCTC,-0.0324
10,GTTGAGCA,0.0323
11,GAAAGGAC,0.143
12,CGAAGCGC,0.117
13,TACTCTCA,-0.16
14,CCGAGCCC,0.116
15,CGCCGGTC,0.21
16,ATAGTTAA,-0.038
17,CCTGAGAG,-0.256
18,AAGCCACC,-0.181
19,ACCCGTTC,0.285
20,AATTGGCT,0.0615
21,CGTTTAAC,-0.117
22,ACTAAACT,-0.121
